These results are taken from PubChem BioAssay AID1508642 (National Center for Advancing Translational Sciences (NCATS), 2021).

Each structure is given as a SMILES string. In all, about 43,000 compounds went through this assay and about 200 (0.47%) were called active. About 12% were inconclusive and are not listed. Calls come from the whole dose curve; as a rule, active = well fitted cell-killing curve with a large enough effect; inconclusive = small, poorly fitted or top-dose-only effect, or effect the other way; inactive = flat fitted curve, though single readings scatter. This is one part of the list.
% is set by controls: 0 for no effect and ±100 for the full control effect.

This test is described as follows: Cell viability qHTS assay in S16 Pmp22-F2sN cells. Note: nearly all actives have a fitted effect of over 65% in size. The following applies: S16 Pmp22-F2sN Schwann cells (luciferase reporters placed in the Pmp22 gene) viability, CellTiter-Glo, 24 h; series mostly up to 57.5 µM; activity change, negative = cytotoxicity: at the top concentration. The method, boiled down: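 Rat S16 Schwann reporter line, 24 h treatment with library compounds delivered at 23 nL per well. Cell viability by CellTiter-Glo luminescence.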
`COc1ccc(-c2nn(-c3cccc([N+](=O)[O-])c3)c3c2cnc2cc4c(cc23)OCO4)cc1`: the “activity change, negative = cytotoxicity” value was inactive: 1.91%.
Take `CC(C)c1ccc(Nc2nc3c(S(=O)(=O)c4ccc(Br)cc4)nnn3c3ccsc23)cc1`: the “activity change, negative = cytotoxicity” value is inactive: 25.3%.
The same measure for `CCCN(C(=O)c1cc2c(s1)-c1c(C)cccc1OC2)c1ccc(OCC)cc1`: inactive: 6.73%; for `CCSc1nnnn1-c1cccc(C(=O)O)c1`: inactive: 3.52%; for `CCOC(=O)c1cc(-c2ccc(C)cc2)n(CC(=O)NC2CCCCCC2)c1C`: inactive: 10.5%.
The same measure for `Cc1cc2nc(-c3cccc(NC(=O)CSc4ccc(Cl)cc4)c3)oc2cc1C`: inactive: -2.82%; for `O=C(/C=C/c1cn(CC(O)CN2CCCCCC2)c2ccccc12)c1ccc(Br)cc1` (stereo unspecified): inactive: -9.22%; for `C=CCC(CC=C)(CNC(=O)C(=O)Nc1ccc(C(=O)OCC)cc1)c1ccccc1`: inactive: 18.9%.
Next, `COC(=O)c1ccccc1NC(=O)c1cc2c(-c3ccc(OC)c(OC)c3)nn(C)c2s1`: inactive: 7.41%.
On to `Cc1ccc(NC(=O)C(Cc2ccccc2)n2cccc2)cc1C` (stereo unspecified), for which the “activity change, negative = cytotoxicity” value is inactive: -15.7%.
Next, `Cc1ccc(-c2nc3ccccn3c2Nc2ccc3c(c2)OCO3)o1`: inactive: -21.4%; `Cc1ccc(NC(=O)Cn2cc(S(=O)(=O)c3ccccc3)c(=O)c3cc4c(cc32)OCO4)cc1`: inactive: -4.37%; `Cc1cccc(C(=O)Nc2ccc(OCc3cc(=O)n4c5c(sc4n3)CCCC5)cc2)c1`: inactive: 18%.
Next, `Cc1c(NC(=O)Nc2ccc(C#N)cc2)c(=O)n(-c2ccccc2)n1C`: inactive: 0.789%; `COc1ccc(C2c3[nH]c4ccc(OC)cc4c3CCN2C(=O)Nc2ccccc2)cc1` (stereo unspecified): inactive: -15%; `CC(C)(C)c1ccc(C(=O)NC(Cc2c[nH]c3ccccc23)C(=O)OCC(=O)c2ccc(Cl)cc2)cc1` (stereo unspecified): inactive: 0.904%.
For the compound `Cc1ccc(CNC(=O)CSc2nc3n[nH]c(C)c3c(=N)n2-c2cccc(C)c2)cc1`, the “activity change, negative = cytotoxicity” value was inactive: 24.2%.
The same measure for `CCOc1ccc(NC(=O)Cn2cc(S(=O)(=O)N3CCN(c4ccccc4F)CC3)c3ccccc3c2=O)cc1`: inactive: 1.31%.
The same measure for `O=C(NCCc1csc2nc(-c3cccc(F)c3)nn12)c1ccc(Br)o1`: inactive: 5.55%; for `COc1ccc(N(CC(=O)N2CCN(c3ccc(F)cc3)CC2)S(=O)(=O)c2c(C)n[nH]c2C)cc1`: inactive: 1.37%.
The same measure for `COc1ccc(-c2noc(-c3ccc(N4CCC(C)CC4)c([N+](=O)[O-])c3)n2)cc1OC`: inactive: 3.92%; for `CCOC(=O)c1scc(-c2ccccc2)c1S(=O)(=O)N1CCN(c2ccccc2OC)CC1`: inactive: 9.29%.
Regarding `COc1ccc(NC(=O)c2oc3ccc(S(=O)(=O)N(C)C4CCCCC4)cc3c2C)cc1`, the “activity change, negative = cytotoxicity” value was inactive: -5.18%.
For the compound `Cc1ccc(CNC(=O)c2cccc(-n3cnc4cccnc43)c2)cc1`, the “activity change, negative = cytotoxicity” value is inactive: -12.3%.
Next, `CCc1ccc(NC(=O)CCNS(=O)(=O)c2ccc3c(c2)CCCC(=O)N3)cc1`: inactive: 5.85%; `COc1cccc(C(=O)Nc2c3c(nn2-c2ccc(Cl)cc2)CS(=O)(=O)C3)c1`: inactive: -3.22%.
Next, `COC(=O)c1ccc(NC(=O)c2cccc3c2C(=O)N(C2CCCCC2)C3)cc1`: inactive: 6.89%.
The same measure for `COC(=O)CC1Oc2ccc(C)cc2-n2cc(-c3ccc(F)cc3)nc21` (stereo unspecified): inactive: 6.99%.
Consider `O=C(CCC1N=C2c3ccccc3N=C(SCc3ccccc3Cl)N2C1=O)N1CCN(c2ccccc2)CC1` (stereo unspecified), for which the “activity change, negative = cytotoxicity” value is inactive: 2.69%.
The same measure for `COc1ccc(Cn2ccc3nc(C)c(C(=O)NCc4ccc(C)cc4)cc3c2=O)cc1`: inactive: -7.42%; for `CC1(C)CC(=O)c2cc(-c3nc(-c4ccc(Cl)cc4)cs3)c(=O)n(-c3ccc(F)cc3)c2C1`: inactive: -22%; for `COc1ccc(-c2oc3ncn4nc(-c5ccccc5Cl)nc4c3c2-c2ccc(OC)cc2)cc1`: inactive: 2.23%.
Next, `Cc1cccc(OCCSc2nc3ccc(NC(=O)COc4ccccc4F)cc3s2)c1`: inactive: 0.0159%.
Next, `COc1ccc(N2CCN(C(=O)c3cc(NS(=O)(=O)c4ccc(F)cc4)ccn3)CC2)cc1`: inactive: 17.7%.
As for `CCOc1ccc(CCNC(=O)CCN2N=C(c3ccc(OC)cc3)CCC2=O)cc1OCC`, the “activity change, negative = cytotoxicity” value is inactive: 4.6%.
Next, `Cc1ccc(C)c(NC(=O)CSc2ncc3c(n2)-c2cc(Cl)ccc2N(Cc2ccccc2F)S3(=O)=O)c1`: inactive: -18.8%; `Cc1ccc(C)c(N2CCN(C(=O)CCn3c(=O)[nH]c4ccccc4c3=O)CC2)c1`: inactive: -0.401%.
Next, `O=C(CSc1nc(=O)[nH]c2c1CCC2)NCc1ccc(Cl)cc1`: inactive: 2.54%; `Cc1cccc(C)c1OCCn1c(C2CC(=O)N(Cc3ccc(F)cc3)C2)nc2ccccc21` (stereo unspecified): inactive: -19.3%; `O=C(CCS(=O)(=O)c1cccc2nonc12)Nc1cccc(F)c1`: inactive: 0.569%.
The same measure for `CC(C)NC(=O)CSc1nc2ccccc2c(=O)n1Cc1ccc(C(=O)NC(C)C)cc1`: inactive: -2.3%; for `CC(CNC(=O)c1ccc2c(c1)nc1n2CCOC1)c1ccccc1` (stereo unspecified): inactive: 15.9%.
As to `COc1ccc(CN(Cc2ccco2)c2cnc(S(C)(=O)=O)nc2C(=O)Nc2ccc(C)c(C)c2)cc1`, the “activity change, negative = cytotoxicity” value was inactive: 0.234%.
As to `COC(=O)c1ccc(C(=O)Nc2ccc(-c3nc4cc(NC(=O)c5ccc(C(=O)OC)cc5)ccc4o3)cc2)cc1`, the “activity change, negative = cytotoxicity” value is inactive: -4.31%.
Next, `Cc1cccc(CSc2nc3cccnc3n2Cc2ccc(C(=O)NCc3ccco3)cc2)c1`: inactive: -24.3%; `CCSc1ncc(Cl)c(C(=O)Nc2ccc(S(=O)(=O)Nc3nccc(C)n3)cc2)n1`: inactive: -14.2%.
